From PubChem BioAssay AID504339 (National Center for Advancing Translational Sciences (NCATS), 2011)
In all, about 390,000 compounds went through this assay and about 17,000 (4.4%) were called active. Inconclusive means that the source gave no clear call. Such entries were picked first, then a sample of the others. Calls follow the shape of the dose curve; as a rule, active = well fitted inhibition curve with a large enough effect; inconclusive = small, poorly fitted or top-dose-only effect; inactive = no such curve, though single readings can be large or run the other way. Potencies beside an inconclusive call are fits to weak or partial responses and may not hold up.

molecular target: Lysine-specific demethylase 4A (Homo sapiens) (UniProt O75164); test: qHTS Assay for Inhibitors of JMJD2A-Tudor Domain; conditions: AlphaScreen JMJD2A-Tudor / H3K4me3 peptide binding; activity change, negative = inhibition: at 114 µM (top of the series); also: nearly all actives have a fitted effect of over 50% in size
UniProt O75164, sequence (O75164 whole entry, looked up, the tested form may be a part): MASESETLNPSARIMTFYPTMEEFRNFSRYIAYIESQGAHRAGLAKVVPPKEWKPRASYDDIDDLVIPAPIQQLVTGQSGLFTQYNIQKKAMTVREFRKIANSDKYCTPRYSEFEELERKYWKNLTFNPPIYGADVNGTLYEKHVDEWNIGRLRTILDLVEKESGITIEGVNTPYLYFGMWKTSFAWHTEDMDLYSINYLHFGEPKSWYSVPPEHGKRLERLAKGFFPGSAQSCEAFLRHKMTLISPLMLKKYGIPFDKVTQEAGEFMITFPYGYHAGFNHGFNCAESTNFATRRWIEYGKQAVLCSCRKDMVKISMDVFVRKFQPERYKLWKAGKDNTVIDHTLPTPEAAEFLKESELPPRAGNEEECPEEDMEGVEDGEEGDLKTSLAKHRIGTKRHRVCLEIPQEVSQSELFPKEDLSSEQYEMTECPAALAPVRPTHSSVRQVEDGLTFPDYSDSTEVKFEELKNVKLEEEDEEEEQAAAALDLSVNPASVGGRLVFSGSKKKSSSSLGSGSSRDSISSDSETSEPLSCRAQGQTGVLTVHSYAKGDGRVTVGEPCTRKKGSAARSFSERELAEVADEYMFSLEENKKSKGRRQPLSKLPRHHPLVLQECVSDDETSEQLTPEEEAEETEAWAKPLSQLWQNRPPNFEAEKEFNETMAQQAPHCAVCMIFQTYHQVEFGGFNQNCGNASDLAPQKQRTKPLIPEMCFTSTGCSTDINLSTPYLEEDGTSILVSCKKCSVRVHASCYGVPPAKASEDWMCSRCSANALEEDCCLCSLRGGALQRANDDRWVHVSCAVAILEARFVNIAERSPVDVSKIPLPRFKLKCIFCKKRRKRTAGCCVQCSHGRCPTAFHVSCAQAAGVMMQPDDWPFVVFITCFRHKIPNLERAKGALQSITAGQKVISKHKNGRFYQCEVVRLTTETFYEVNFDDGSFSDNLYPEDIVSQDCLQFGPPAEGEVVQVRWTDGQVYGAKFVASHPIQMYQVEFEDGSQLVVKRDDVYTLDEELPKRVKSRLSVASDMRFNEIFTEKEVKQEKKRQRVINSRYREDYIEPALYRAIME
% is scaled to controls: 0 for no effect and ±100 for the full control effect; potency is read from the fitted curve at half-maximal effect; tags tell the direction and shape of the fitted curve.

| SMILES | activity change, negative = inhibition | Potency |
| --- | --- | --- |
| C[n+]1cn(CC(O)COCc2ccccc2)c2ccccc21 (centres undefined) | inactive: -9.72% |  |
| CC(=O)c1ccc(NCC(=O)N2CCN(c3ccccc3)CC2)cc1 | inactive: -0.377% |  |
| COc1ccccc1C1/C(=C(/O)c2ccc(Cl)cc2)C(=O)C(=O)N1CCN1CCOCC1 (centres undefined) |  | inconclusive: 79.4 µM [inhibitor, partial curve] |
| Oc1ccc2ccccc2c1C=NCc1ccccc1 |  | inconclusive: 56.2 µM [inhibitor, partial curve] |
| CN1CCC(NC(=O)c2cccc(Oc3ccccc3)c2)CC1 | inactive: -25.4% |  |
| Cc1cc(OC(=O)c2ccccc2[N+](=O)[O-])c([N+](=O)[O-])c(=O)[nH]1 | inactive: -21.3% |  |
| COc1ccc(/C=N/Nc2nc(C)cc(=O)[nH]2)cc1OC |  | active: 25.1 µM |
| O=C(NNC(=O)c1ccccc1O)c1ccc(Cl)c(S(=O)(=O)N2CCc3ccccc32)c1 |  | inconclusive: 25.1 µM [inhibitor, full curve, poor fit] |
| Cc1nc(NC(=O)c2ccc(OCC(C)C)cc2)sc1Cc1ccc2c(c1)OCO2 |  | inconclusive: 50.1 µM [inhibitor, partial curve] |
| CCOc1ccccc1NCc1cc(=O)oc2cc(C)ccc12 |  | inconclusive: 28.2 µM [inhibitor, partial curve] |
| COc1ccc2[nH]c3c(=O)n(Cc4ccc(C(=O)N5CCCCCC5)cc4)c(=S)[nH]c3c2c1 |  | inconclusive: 31.6 µM [inhibitor, partial curve, poor fit] |
| c1ccc(-c2cn(C[C@H]3CC[C@@H]([C@@H]4CC[C@H](Cn5cc(-c6ccccc6)nn5)O4)O3)nn2)cc1 | inactive: -20% |  |
| CCOC(=O)c1scc(-c2ccc(C)cc2)c1S(=O)(=O)Nc1cc(OC)ccc1OC |  | inconclusive: 10 µM [inhibitor, full curve] |
| CC(=Nc1cc(C(=O)c2ccccc2)ccc1N)C1=C(O)CC(C)(C)CC1=O |  | inconclusive: 25.1 µM [inhibitor, full curve] |
| CCCCCN(C(=O)CCC(=O)OCc1cccc(F)c1)c1c(N)n(CCCC)c(=O)[nH]c1=O | inactive: -6.9% |  |
| O=C(Nc1nc(-c2ccc3c(c2)OCCO3)cs1)C1CCCC1 |  | inconclusive: 89.1 µM [inhibitor, partial curve] |
| O=C(NC(=S)N1CCN(Cc2ccc3c(c2)OCO3)CC1)c1ccc(Cl)cc1 |  | inconclusive: 50.1 µM [inhibitor, partial curve] |
| Nc1ccc(Nc2nc(-c3ccncc3)cs2)cc1 |  | active: 56.2 µM |
| CCOc1ccc(NC(=O)CN(C)C(=O)C2CC(=O)N(CCc3ccccc3)C2)cc1OCC (centres undefined) | inactive: -13.5% |  |
| CCN(Cc1ccncc1)Cc1c(O)ccc2cc(Br)ccc12 |  | active: 44.7 µM |
| CCCCCCC(=O)N(O)C1CC(=O)N(Cc2ccccc2)C1=O (centres undefined) |  | inconclusive: 79.4 µM [inhibitor, partial curve] |
| Nc1c(C(=O)Nc2ccccc2)sc2nc3c(cc12)CN(Cc1ccccc1)CC3 | inactive: -20.2% |  |
| O=C(CCC(=O)Nc1ccccc1)NNC(=O)c1ccco1 | inactive: -21.9% |  |
| Nc1ccc(Nc2ccccc2)c(Cl)c1 |  | inconclusive: 56.2 µM [inhibitor, partial curve] |
| C/C(=C\c1ccccc1)CN1CCC(C(=O)N2CCC(C)CC2)CC1 | inactive: -0.763% [at 11.4 µM] |  |

| SMILES | activity change, negative = inhibition | Potency |
| --- | --- | --- |
| CCN(CC)c1ccc(C2Nc3ccccc3-c3cc(C)nn32)cc1 (centres undefined) |  | active: 50.1 µM |
| Cc1ccc(S(=O)(=O)c2nc(-c3ccc(F)cc3)oc2N2CCN(c3ccccc3)CC2)cc1 |  | inconclusive: 12.6 µM [inhibitor, full curve, poor fit] |
| C=CCn1c(=O)c2ccccc2n2c(=S)[nH]nc12 |  | active: 7.94 µM |
| COc1ccccc1-c1nc2s/c(=C\c3cccs3)c(=O)n2n1 | inactive: -5.34% [at 11.4 µM] |  |
| COc1cc(/C=C2\CCc3ccccc3C2=O)cc(OC)c1OC | inactive: -6.62% |  |
| COc1cc(OC)cc(-c2cc3ncccc3cn2)c1 |  | inconclusive: 89.1 µM [inhibitor, single point] |
| O=c1c(C(c2ccc(Cl)cc2)c2c(O)nc3n(c2=O)CCCS3)c(O)nc2n1CCCS2 | inactive: -10.7% |  |
| COc1cccc(NC(=O)CN(C)C(=O)CN2C(=O)c3ccc([N+](=O)[O-])cc3C2=O)c1 | inactive: -1.97% |  |
| Cc1cc2cc(CN(CC3CCCO3)C(=S)Nc3ccccc3)c(=O)[nH]c2cc1C (centres undefined) |  | inconclusive: 25.1 µM [inhibitor, full curve, poor fit] |
| CN(Cc1cccnc1)C(=O)CNC(=O)c1ccc(Cl)cc1Cl | inactive: -13.1% |  |
| CCCCN(CCCNC(=O)c1cc(Nc2ccccc2OC)nc2ccccc12)c1ccccc1 | inactive: -16% |  |
| COc1ccc(N2CCC(CNC(=O)Nc3ccc(C)c(C)c3)C2)cc1 (centres undefined) |  | active: 25.1 µM |
| CCCCN(C)C(=O)Cn1cnc2sc(C)c(S(=O)(=O)N3CCC(C)CC3)c2c1=O | inactive: -14% |  |
| Cc1cc(C)cc(N=Cc2c(O)c3ccccc3oc2=O)c1 | inactive: -17.5% |  |
| Cc1ccc(CNC(=O)COC(=O)c2ccc(S(=O)(=O)N3CCOCC3)cc2)cc1 | inactive: -1.37% |  |
| CCC(=O)Nc1ccc(NC(=S)NC(=O)/C=C/c2ccco2)cc1 |  | inconclusive: 44.7 µM [inhibitor, partial curve, poor fit] |
| Cc1nnc(N/N=C/C2CC=CCC2)[nH]c1=O (centres undefined) |  | inconclusive: 0.708 µM [inhibitor, full curve, poor fit] |
| Cc1cc(NC(=O)CN2CCN(c3ccccc3O)CC2)no1 |  | active: 79.4 µM |
| Cc1cc(C(=O)CN2C(=O)NC3(CCCc4ccccc43)C2=O)c(C)n1C (centres undefined) |  | inconclusive: 79.4 µM [inhibitor, single point] |
| COC(=O)/C(C#N)=C/c1c(N2CCCCCC2)nc2c(C)cccn2c1=O | inactive: -33.1% |  |
| O=C(NN1C(=O)C2C3C=CC(C3)C2C1=O)c1ccncc1 (centres undefined) |  | inconclusive: 63.1 µM [inhibitor, single point] |
| Cc1ccc(Oc2ccc3c(c2)C(=O)N(c2ccc(S(=O)(=O)Nc4nccs4)cc2)C3=O)cc1 |  | inconclusive: 56.2 µM [inhibitor, partial curve] |
| CCCC(=O)NC1CCCc2c1cnn2-c1ccc(C)c(C)c1 (centres undefined) |  | inconclusive: 39.8 µM [inhibitor, single point] |
| COc1cccc(CSc2nc3ccncc3[nH]2)c1 | inactive: -5.63% |  |
| N#Cc1c(NC(=O)CSc2nnc(-c3ccncc3)n2CC2CCCO2)sc2c1CCCC2 (centres undefined) | inactive: -25.3% |  |

| SMILES | activity change, negative = inhibition | Potency |
| --- | --- | --- |
| Cc1cc(C(=O)NCc2ccccc2)c2c(C)nn(-c3cccc(F)c3)c2n1 | inactive: 5.83% |  |
| COc1ccc(NC(=O)CN(C)C(=O)c2ccc(=O)[nH]c2)cc1 | inactive: 3.53% |  |
| C/C(Cn1nnc([N+](=O)[O-])n1)=N\NC(=O)c1ccncc1 |  | inconclusive: 89.1 µM [inhibitor, single point] |
| Cc1ccc(S(=O)(=O)Nc2ccc(O)c3cccnc23)cc1 |  | inconclusive: 25.1 µM [inhibitor, full curve] |
| COc1cc(Nc2nc(SCC(=O)c3ccc(Cl)c(Cl)c3)nc3ccccc23)cc(OC)c1 | inactive: -4.33% |  |
| CCN1C(=O)/C(=C\c2nc3ccccc3c(=O)n2-c2ccccc2)c2ccccc21 |  | active: 44.7 µM |
| CC1CCN(c2nc(Cl)nc(Nc3ccc([N+](=O)[O-])cc3)n2)CC1 |  | inconclusive: 12.6 µM [inhibitor, full curve] |
| CN1/C(=C\C(=O)c2cccnc2)Sc2ccccc21 | inactive: 2.75% |  |
| CCn1c(CC(=O)Nc2cccc(Cl)c2Cl)nnc1SCCOc1ccc(OC)cc1 |  | inconclusive: 50.1 µM [inhibitor, partial curve] |
| Cc1ccc(/C=N/n2c(-c3ccncc3)n[nH]c2=S)cc1 |  | active: 2.24 µM |
| O=C1C2C3C=CC(C4CC34)C2C(=O)N1/N=C/c1ccc(-c2ccc(F)cc2[N+](=O)[O-])o1 (centres undefined) |  | inconclusive: 44.7 µM [inhibitor, partial curve] |
| COc1ccc(/C(=N\Nc2ccccc2C(=O)O)c2ccccc2)cc1 |  | inconclusive: 56.2 µM [inhibitor, partial curve] |
| Cc1ccc(/C=C2/NC(=O)N(Cc3ccccc3F)C2=O)o1 |  | inconclusive: 79.4 µM [inhibitor, single point] |
| Cc1ccc(C(=O)N2CCC3CC2c2cc(-c4ccc5c(c4)OCO5)ccc23)cc1 (centres undefined) |  | inconclusive: 12.6 µM [inhibitor, full curve, poor fit] |
| CCOc1ccccc1NC(=O)CN(c1nccs1)S(=O)(=O)c1ccc(N)cc1 |  | inconclusive: 89.1 µM [inhibitor, single point] |
| Cc1ccc(-c2csc3nc[nH]c(=S)c23)cc1C |  | inconclusive: 56.2 µM [inhibitor, partial curve] |
| Cc1oc2ncnc(N3CCCCC3)c2c1C(=O)NCC1CCN(Cc2cccc(F)c2)CC1 | inactive: -6.8% |  |
| CC(C)c1ccc(CNc2ccc3c(c2)ncn3C)cc1 |  | inconclusive: 50.1 µM [inhibitor, partial curve] |
| O=C(CCC(=O)N1CCOCC1)NCCc1ccc(F)cc1 |  | inconclusive: 100 µM [inhibitor, single point] |
| CCOc1ccc(S(=O)(=O)N2CCN(c3ccccc3)CC2)c2cccnc12 |  | inconclusive: 56.2 µM [inhibitor, partial curve] |
| Cc1ccc(-n2cccc2C(=S)N=P(N(C)C)(N(C)C)N(C)C)cc1 |  | active: 35.5 µM |
| COc1ccc(-c2nc(CSc3nncn4c3cc3oc(C)cc34)c(C)o2)cc1 | inactive: -23.1% |  |
| CC(=O)N1CCN(Cc2nc3cc(Cl)ccc3c(=O)[nH]2)CC1 |  | inconclusive: 22.4 µM [inhibitor, partial curve] |
| COc1ccc(OC)c(-n2c(=S)[nH]c3cc(C(=O)N4CCC(C(N)=O)CC4)ccc3c2=O)c1 |  | active: 15.8 µM |
